The supplement of paper PMC11741623
Some of the results follow. Interaction screen of human proteins with wild-type SARS-CoV-2 proteins by split-DHFR complementation in yeast, 1 µg/mL methotrexate. Value = fitness of the pair (three or more lineages) minus that of the viral protein without a human partner, on a scale set by negative (0) and fused positive (1) controls, mean of up to three cultures; higher = more likely to interact. Active = false discovery rate below 0.05 (one-sided t-test) in at least one culture. Nearly all pairs are not hits, and differences among them are mostly noise (correlation between cultures about 0.3); most hits were seen in one culture only. Human sequences are the Swiss-Prot entries looked up by gene name; the clone may be another isoform. NSP2 values were corrected by the authors for a growth advantage. Listed are human proteins with a hit and a random twelfth of the others.

B1: GRPEL2, Q8TAA5 (protein)
chain: MAVRSLWAGRLRVQRLLAWSAAWESKGWPLPFSTATQRTAGEDCRSEDPPDELGPPLAERALRVKAVKLEKEVQDLTVRYQRAIADCENIRRRTQRCVEDAKIFGIQSFCKDLVEVADILEKTTECISEESEPEDQKLTLEKVFRGLLLLEAKLKSVFAKHGLEKLTPIGDKYDPHEHELICHVPAGVGVQPGTVALVRQDGYKLHGRTIRLARVEVAVESQRRL
B2: NGFRAP1, Q00994 (protein)
chain: MANIHQENEEMEQPMQNGEEDRPLGGGEGHQPAGNRRGQARRLAPNFRWAIPNRQINDGMGGDGDDMEIFMEEMREIRRKLRELQLRNCLRILMGELSNHHDHHDEFCLMP

What follows are binders tested against SARS-CoV-2 E (assay: yeast fitness gain over the viral ORF with no human partner (scaled fitness); higher = more likely to interact).
Procedure: (§1)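 Split mouse DHFR complementation in pooled diploid yeast: human ORFeome clones carry one fragment and viral ORFs the other; barcoded lineages compete in 1 µg/mL methotrexate and fitness is read by barcode sequencing in up to three cultures.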

Row | Binder | yeast fitness gain
1 | B1 | inactive: 0.0443
2 | B2 | inactive: 0.0275

The binders below were run against SARS-CoV-2 M in the same assay as above.
Procedure: as §1

Row | Binder | yeast fitness gain
3 | B1 | inactive: 0.0821
4 | B2 | inactive: -0.0412

What follows are binders tested against SARS-CoV-2 NSP1 in the same assay as above.
Procedure: as §1

Row | Binder | yeast fitness gain
5 | B1 | inactive: -0.0368
6 | B2 | inactive: -0.157

The binders below were run against SARS-CoV-2 NSP10 in the same assay as above.
Procedure: as §1

Row | Binder | yeast fitness gain
7 | B1 | inactive: 0.00173
8 | B2 | inactive: 0.0664

These binders were tested against SARS-CoV-2 NSP12 in the same assay as above.
Procedure: as §1

Row | Binder | yeast fitness gain
9 | B1 | inactive: 0.0951
10 | B2 | inactive: 0.0611

These binders were tested against SARS-CoV-2 NSP13 in the same assay as above.
Procedure: as §1

Row | Binder | yeast fitness gain
11 | B1 | inactive: 0.0168
12 | B2 | inactive: -0.000712

What follows are binders tested against SARS-CoV-2 NSP14 in the same assay as above.
Procedure: as §1

Row | Binder | yeast fitness gain
13 | B1 | inactive: -0.0324
14 | B2 | inactive: 0.13

What follows are binders tested against SARS-CoV-2 NSP15 in the same assay as above.
Procedure: as §1

Row | Binder | yeast fitness gain
15 | B1 | inactive: 0.0508
16 | B2 | inactive: 0.0572

These binders were tested against SARS-CoV-2 NSP16 in the same assay as above.
Procedure: as §1

Row | Binder | yeast fitness gain
17 | B1 | inactive: -0.2
18 | B2 | inactive: -0.161

These binders were tested against SARS-CoV-2 NSP2 in the same assay as above.
Procedure: as §1

Row | Binder | yeast fitness gain
19 | B1 | inactive: -0.179
20 | B2 | inactive: -0.152

These binders were tested against SARS-CoV-2 NSP4 in the same assay as above.
Procedure: as §1

Row | Binder | yeast fitness gain
21 | B1 | inactive: -0.122

These binders were tested against SARS-CoV-2 NSP5 in the same assay as above.
Procedure: as §1

Row | Binder | yeast fitness gain
22 | B1 | inactive: 0.0215
23 | B2 | inactive: -0.0176

Each binder was assayed against SARS-CoV-2 NSP6 in the same assay as above.
Procedure: as §1

Row | Binder | yeast fitness gain
24 | B1 | inactive: 0.0406
25 | B2 | inactive: -0.0138

Each binder was assayed against SARS-CoV-2 NSP7 in the same assay as above.
Procedure: as §1

Row | Binder | yeast fitness gain
26 | B1 | inactive: 0.0203
27 | B2 | inactive: 0.0726

These binders were tested against SARS-CoV-2 NSP8 in the same assay as above.
Procedure: as §1

Row | Binder | yeast fitness gain
28 | B1 | inactive: -0.00795

What follows are binders tested against SARS-CoV-2 NSP9 in the same assay as above.
Procedure: as §1

Row | Binder | yeast fitness gain
29 | B1 | inactive: -0.0431
30 | B2 | inactive: 0.00604

The binders below were run against SARS-CoV-2 ORF10 in the same assay as above.
Procedure: as §1

Row | Binder | yeast fitness gain
31 | B1 | inactive: 0.0456
32 | B2 | inactive: 0.0331

These binders were tested against SARS-CoV-2 ORF3A in the same assay as above.
Procedure: as §1

Row | Binder | yeast fitness gain
33 | B1 | inactive: -0.0437
34 | B2 | inactive: -0.0184

Each binder was assayed against SARS-CoV-2 ORF3B in the same assay as above.
Procedure: as §1

Row | Binder | yeast fitness gain
35 | B1 | inactive: -0.00992
36 | B2 | inactive: 0.0111

Each binder was assayed against SARS-CoV-2 ORF6 in the same assay as above.
Procedure: as §1

Row | Binder | yeast fitness gain
37 | B1 | inactive: -0.00119
38 | B2 | inactive: 0.0322

What follows are binders tested against SARS-CoV-2 ORF7A in the same assay as above.
Procedure: as §1

Row | Binder | yeast fitness gain
39 | B1 | inactive: 0.0613
40 | B2 | inactive: 0.0146

What follows are binders tested against SARS-CoV-2 ORF7B in the same assay as above.
Procedure: as §1

Row | Binder | yeast fitness gain
41 | B1 | inactive: -0.0497
42 | B2 | inactive: -0.0323

The binders below were run against SARS-CoV-2 ORF8 in the same assay as above.
Procedure: as §1

Row | Binder | yeast fitness gain
43 | B1 | inactive: -0.00832
44 | B2 | inactive: -0.021

The binders below were run against SARS-CoV-2 ORF9B in the same assay as above.
Procedure: as §1

Row | Binder | yeast fitness gain
45 | B1 | inactive: 0.00926
46 | B2 | inactive: -0.0187

What follows are binders tested against SARS-CoV-2 ORF9Bwu (the 73-codon ORF) in the same assay as above.
Procedure: as §1

Row | Binder | yeast fitness gain
47 | B1 | inactive: 0.172

Each binder was assayed against SARS-CoV-2 S in the same assay as above.
Procedure: as §1

Row | Binder | yeast fitness gain
48 | B1 | inactive: 0.0457
49 | B2 | inactive: -0.00753

What follows are binders tested against SARS-CoV-2 N in the same assay as above.
Procedure: as §1

Row | Binder | yeast fitness gain
50 | B2 | inactive: 0.0661
